The list shows a part of the results. The main result of the screen is listed elsewhere. These columns were measured beside it and carry no call. Compounds called inactive in the main read-out are mostly missing here.

The nature of the experiment: inhibitors of triacylglycerol accumulation, primary screen, cell-based, uHTS, fluorescence, H9c2 (AID 651582). The conditions noted are these: H9c2 cells, Nile Red lipid (TAG) fluorescence; measured here:; at 12.5 µM; cells loaded with 200 µM oleic acid.
For the molecule `NC1=C(Cl)C(=O)c2ccccc2C1=O`, the DAPI nuclei signal change (viability), lower = more cytotoxic is -50%. As for `Cc1c(C(=O)OCC2CCCO2)[nH]c2c1C(=O)CC(c1ccco1)C2` (stereo unspecified), the DAPI nuclei signal change (viability), lower = more cytotoxic was -24.7%. Next, `CC(C)CCCCCCCCCCCCC(=O)NCC(=O)NC1C(C)OC(Nc2ncnc3nc[nH]c23)C(O)C1O` (stereo unspecified): -47%.

For the molecule `Cc1ccc2[nH]c(-c3ccccc3)cc(=O)c2c1`, the DAPI nuclei signal change (viability), lower = more cytotoxic is -25.6%. Next, `COc1ccc(NC(=O)C2(C)Cc3c(-c4ccc5c(c4)OCO5)ccnc3O2)cn1` (stereo unspecified): -42%. Next, `Cc1cc(C)c2sc(NC(=O)c3ccc([N+](=O)[O-])o3)nc2c1`: -41.2%; `CCC(=O)Nc1c(-c2ccc(OC)cc2)c(=O)c2ccccc2n1C`: -49.1%. On to `COc1cc(/C=C/CN2CCC(C(=O)NC(c3ccc(F)cc3)c3ccc4ccccc4n3)CC2)ccc1OC(C)=O` (stereo unspecified), for which the DAPI nuclei signal change (viability), lower = more cytotoxic was -0.458%. Next, `Cc1ccc(Cl)cc1NC(=S)N/N=C/c1cccc2ccccc12`: -24.6%; `COc1cccc(Cn2c3ccc(NC(=O)CCc4ccc(F)cc4)cc3c(=O)n2C)c1`: -18.7%; `COc1ccc(CCn2c(-n3nc(C)cc3C)nc3c2c(=O)[nH]c(=O)n3C)cc1`: -17.4%. Next, `CCOc1ccccc1NC(=O)C1CCN(C(=O)NCc2ccccc2)CC1`: -0.372%.

Consider `Cc1ccc(C(=O)c2no[n+]([O-])c2C(=O)c2ccc(C)cc2)cc1`, for which the DAPI nuclei signal change (viability), lower = more cytotoxic is -7.4%. Next, `Nc1nn(-c2ccccc2)c(N)c1N=Nc1cccc(F)c1`: -41.3%.

In the case of `COc1cc(OC)c(-c2nn3c(-c4ccco4)nnc3s2)cc1OC`, the DAPI nuclei signal change (viability), lower = more cytotoxic was -6.22%. Next, `CN1CCN(c2ccc(Cl)cc2NC(=O)c2ccc(S(=O)(=O)N(C)C)cc2)CC1`: -13.2%.

On to `Oc1ccc(Nc2nc(NCC3CCCO3)c3ccccc3n2)cc1` (stereo unspecified), for which the DAPI nuclei signal change (viability), lower = more cytotoxic was -8.48%. Next, `CCC1SC2=NC(C)=C(C(=O)OCC(C)C)C(/C=C/c3ccccc3OC)N2C1=O` (stereo unspecified): -16.4%. Next, `CCOc1ccc(NC(=O)c2ccc(NC(=O)CSc3nc4ccccc4c(=O)[nH]3)cc2)cc1`: -25.2%; `Cc1cc(NC(=O)c2ccccc2F)n(-c2nc3ccccc3[nH]2)n1`: 25.8%. For the molecule `Nc1c(C(=O)Nc2ccccc2)c2nc3ccccc3nc2n1CCCN1CCOCC1`, the DAPI nuclei signal change (viability), lower = more cytotoxic was determined as 40.4%. With `CC(C)C[C@H]1C(=O)N2CCC[C@H]2[C@]2(O)O[C@](NC(=O)C3C=C4c5cccc6[nH]c(Br)c(c56)C[C@H]4N(C)C3)(C(C)C)C(=O)N12` (stereo partly specified), the DAPI nuclei signal change (viability), lower = more cytotoxic is 15.8%. Take `CN(C)CCNc1ccc2ncn3c4ccc(O)cc4c(=O)c1c23`: the DAPI nuclei signal change (viability), lower = more cytotoxic was -48.7%.

Turning to `CN1C/C(=C/c2ccccc2[N+](=O)[O-])C(=O)/C(=C\c2ccccc2[N+](=O)[O-])C1`, the DAPI nuclei signal change (viability), lower = more cytotoxic was -44.6%. For the molecule `COc1ccc(C2c3cc4c(cc3OC(N3CCOCC3)C2C)OCO4)c(OC)c1` (stereo unspecified), the DAPI nuclei signal change (viability), lower = more cytotoxic is -16%. Next, `COc1cc(CCCN2CCNC[C@@H]2c2ccccc2)cc(OC)c1OC`: -46.3%. For the molecule `CCOC(=O)c1c(C)[nH]c(-c2csc(N)n2)c1C`, the DAPI nuclei signal change (viability), lower = more cytotoxic was -31.3%. Next, `COc1ccc(-c2sc3ccc(N4CCOCC4)cc3c2C#CCCO)cc1`: 58.9%; `O=C(N/N=C/c1cn(-c2ccccc2)nc1-c1cc2ccccc2o1)c1c[nH]c2ccccc12`: -26.2%. With `CCC(C)NCC(=O)Nc1ccc(-c2nc3cc(NC(=O)CNC(C)CC)ccc3o2)cc1` (stereo unspecified), the DAPI nuclei signal change (viability), lower = more cytotoxic was 48%. Next, `c1ccc(-c2csc(NNC3=NCCCCC3)n2)cc1`: -3.39%; `CC(C)=CCC/C(C)=C/CNC(=O)C[C@H]1C[C@H](C(=O)N2CCCCC2)[C@@]2(CCc3ccccc3)c3[nH]c4cc(-c5ccco5)ccc4c3CCN2C1=O`: 8.48%; `c1ccc(C2Nc3ccccc3-c3nc4ccccc4n32)nc1` (stereo unspecified): 15.5%. Next, `O=C(NCCOc1nc(N2CCOCC2)nc(N2CCOCC2)n1)Nc1ccccc1`: -17.2%; `COc1ccc(C(=O)Nc2sc3c(c2C(=O)NCc2ccco2)CCCC3)cc1OC`: -5.66%; `Oc1c(N=Nc2ccccn2)ccc2ccccc12`: -17.6%.

In the case of `CS(=O)(=O)c1nc(-c2ccc(Br)cc2)cc(-c2ccccc2)c1C#N`, the DAPI nuclei signal change (viability), lower = more cytotoxic is -43.3%. Next, `CCOc1ccccc1C1C2=C(COC2=O)Nc2cc3c(cc21)OCO3` (stereo unspecified): -35%. `O=C(CSc1nc(Nc2ccccc2)nc(N2CCOCC2)n1)N1CCCC1`: the DAPI nuclei signal change (viability), lower = more cytotoxic was -25.3%. Next, `CC1CCc2c(sc3nc(C(C)(C)C)nc(N4CCN(C(=O)CCl)CC4)c23)C1` (stereo unspecified): -47.2%. Next, `C[C@@H]1CN([C@H](C)CO)C(=O)c2c(c3ccccc3n2C)-c2ccccc2CO[C@H]1CN(C)Cc1ccc(-c2ccccc2)cc1`: -35.1%. Next, `Cn1nc(-c2ccc(Cl)cc2)c2cc(C(=O)NC3CC3)sc21`: -37.2%; `CCOC(=O)[C@H]1[C@H]2COc3ccc(Cl)cc3[C@@H]2N2C(=O)c3cc(Cl)ccc3NC(=O)[C@@]12C`: -9.69%. Take `CCC(=O)NC(c1cc(Cl)c2cccnc2c1O)C1CC1` (stereo unspecified): the DAPI nuclei signal change (viability), lower = more cytotoxic was -41.9%. Take `CCCCC(=O)NC(c1ccc(Cl)cc1)c1ccc2cccnc2c1O` (stereo unspecified): the DAPI nuclei signal change (viability), lower = more cytotoxic is -41.6%. Next, `COc1ccccc1-c1cc(C(=O)NC2CCN(C)CC2)c2ccc(Cl)c(C)c2n1`: -48.5%.

Turning to `CC(=O)c1ccc(N=Cc2c(O)n(-c3cc(Cl)ccc3N3CCOCC3)c(=O)c3ccccc23)cc1`, the DAPI nuclei signal change (viability), lower = more cytotoxic was -5.93%.

Consider `CCc1ccc(-c2nc(C(N)=O)c3[nH]c(=O)n(-c4ccccc4OC)c3n2)cc1`, for which the DAPI nuclei signal change (viability), lower = more cytotoxic is -30%. Next, `CC1(C(=O)Nc2cccc(Oc3ccccc3)c2)Cc2c(-c3ccc4c(c3)OCO4)ccnc2O1` (stereo unspecified): -46.8%; `COc1cc2c(cc1OC)C(C)N(C(=O)c1cc3c(C)cc(C)cc3[nH]1)CC2` (stereo unspecified): -8.36%. Next, `O=C(CSc1ccc(-c2cccc([N+](=O)[O-])c2)nn1)N1CCCC1`: -46.9%.

In the case of `CCOC(=O)c1cc(-c2ccccc2)sc1NC(=S)Nc1cccc(C)n1`, the DAPI nuclei signal change (viability), lower = more cytotoxic was -13.9%. Next, `Cc1ccc(-c2cc(C(F)F)n3ncc(C(=O)N4CCCc5ccccc54)c3n2)cc1`: -20.5%. Next, `COc1ccc(CC(N)c2csc(NC(=O)c3cc(C(C)(C)C)nn3Cc3ccccc3)n2)cc1` (stereo unspecified): -21.6%; `CCCc1nc2oc3c(NCCN(C)C)ncnc3c2c2c1CCCC2`: -0.747%. Next, `OC1CC2CCC(C1)N2CCCN1c2ccccc2Sc2ccc(Cl)cc21` (stereo unspecified): -48.4%. For `Cc1cc(N2CCN(Cc3cn(C)nc3-c3cccc(Cl)c3)CC2)cc(C)n1`, the DAPI nuclei signal change (viability), lower = more cytotoxic is -40.7%.

With `Cc1c(Nc2cc(Cl)c3nonc3c2[N+](=O)[O-])c(=O)n(-c2ccccc2)n1C`, the DAPI nuclei signal change (viability), lower = more cytotoxic was found to be 94.6%. `O=C(c1ccoc1)N1CCN(c2cc(-c3ccccc3)nc3cc(-c4ccc(Br)cc4)nn23)CC1`: the DAPI nuclei signal change (viability), lower = more cytotoxic was 89.8%.

`NNC(=O)CCN1CCCCC1`: the DAPI nuclei signal change (viability), lower = more cytotoxic was -24.8%. Next, `COc1ccc(CC(=O)Nc2ccc(-c3ccc4nnc(C)n4n3)cc2)cc1OC`: -1.26%.
